Laboratory results reported in PMC4336329 (PLoS ONE, 2015).
The whole screen tested about 310,000 compounds, of which about 14,000 (4.5%) showed an effect of 50% or more. Effects have a minus sign here. Some of the results follow.

The compounds below were run against human ether-à-go-go-related gene (hERG) potassium channel (human, UniProt Q12809) (assay: primary screen, population patch clamp on CHO cells stably expressing hERG).
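Also: peak tail current of the secondary pulse compared with the same well before compound.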

human ether-à-go-go-related gene (hERG) potassium channel, sequence (Q12809 whole entry, looked up): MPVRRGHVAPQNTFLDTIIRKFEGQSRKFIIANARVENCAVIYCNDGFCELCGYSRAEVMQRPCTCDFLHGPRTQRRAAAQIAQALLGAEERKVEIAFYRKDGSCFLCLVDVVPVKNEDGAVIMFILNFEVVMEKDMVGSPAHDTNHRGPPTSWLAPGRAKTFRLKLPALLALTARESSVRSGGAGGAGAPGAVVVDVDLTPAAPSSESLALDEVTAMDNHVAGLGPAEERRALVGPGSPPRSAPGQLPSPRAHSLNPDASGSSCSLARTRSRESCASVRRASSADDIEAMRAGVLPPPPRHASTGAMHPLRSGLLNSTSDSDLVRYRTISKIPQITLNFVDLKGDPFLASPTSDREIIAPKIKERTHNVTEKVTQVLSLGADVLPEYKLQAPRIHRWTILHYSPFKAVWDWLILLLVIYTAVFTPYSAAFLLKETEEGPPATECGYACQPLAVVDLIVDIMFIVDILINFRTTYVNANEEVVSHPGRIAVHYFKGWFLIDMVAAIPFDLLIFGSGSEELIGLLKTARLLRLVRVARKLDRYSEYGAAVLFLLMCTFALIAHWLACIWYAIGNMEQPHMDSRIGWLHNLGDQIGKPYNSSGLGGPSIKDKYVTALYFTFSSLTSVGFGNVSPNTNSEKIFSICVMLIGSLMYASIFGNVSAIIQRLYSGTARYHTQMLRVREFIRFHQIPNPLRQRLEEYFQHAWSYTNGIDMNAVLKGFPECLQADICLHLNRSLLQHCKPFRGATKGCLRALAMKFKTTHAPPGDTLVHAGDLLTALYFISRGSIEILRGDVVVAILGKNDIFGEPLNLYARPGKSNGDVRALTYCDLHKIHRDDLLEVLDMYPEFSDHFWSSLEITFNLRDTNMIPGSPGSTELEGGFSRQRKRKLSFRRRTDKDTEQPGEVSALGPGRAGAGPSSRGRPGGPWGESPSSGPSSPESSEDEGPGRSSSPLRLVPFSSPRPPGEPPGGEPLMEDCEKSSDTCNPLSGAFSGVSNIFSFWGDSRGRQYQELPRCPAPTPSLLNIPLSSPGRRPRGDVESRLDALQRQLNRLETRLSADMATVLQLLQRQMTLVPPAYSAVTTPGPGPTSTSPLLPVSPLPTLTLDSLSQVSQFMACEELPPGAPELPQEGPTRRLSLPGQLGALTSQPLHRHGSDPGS

Question: With `COn1c(-c2ccccc2)c(C=O)c2ccccc21` as the compound, how does the “hERG current change (%, negative = inhibition) at 10uM” value read?
Answer: -2.59%

Question: With `Nc1ccc(S(=O)(=O)NC2=NCCCCC2)cc1N` as the compound, how does the “hERG current change (%, negative = inhibition) at 10uM” value read?
Answer: 3.36%

Question: `C(=N\n1cnnc1)/c1cccc(Oc2ccccc2)c1` was tested. Which “hERG current change (%, negative = inhibition) at 10uM” value did it give?
Answer: 1.09%

Question: How did the “hERG current change (%, negative = inhibition) at 10uM” value turn out when `CCNC(=O)/C(C#N)=C/c1c(N2CCN(c3ccccc3)CC2)nc2ccccn2c1=O` was run?
Answer: -66.3%

Question: Which “hERG current change (%, negative = inhibition) at 10uM” value does the source give for `Cc1cc(F)ccc1NC(=O)c1cc(S(=O)(=O)N2CCOCC2)cn1C` here?
Answer: -27.9%

Question: For `COCC(=O)N1CCC(Oc2ccc(C(=O)NCc3cc(C)n(C)n3)cc2)CC1`, which “hERG current change (%, negative = inhibition) at 10uM” value is on record?
Answer: 3.38%

Question: For `COc1ccc(N2CCN(CC(=O)NC(C)c3ccccc3)CC2)cc1` (stereo not drawn), which “hERG current change (%, negative = inhibition) at 10uM” value is on record?
Answer: 20.6%

Question: For `O=C(O)C1CCCCN1C(=O)c1cc2c(s1)CCCCC2` (stereo not drawn), which “hERG current change (%, negative = inhibition) at 10uM” value is on record?
Answer: -6.95%

Question: How did the “hERG current change (%, negative = inhibition) at 10uM” value turn out when `COc1ccc(C(=O)NN=C2CCCC2)cc1` was run?
Answer: -7.28%

Question: For `O=C(COC(=O)c1ccccc1Cl)NCCC1=CCCCC1`, which “hERG current change (%, negative = inhibition) at 10uM” value is on record?
Answer: 8.14%

Question: For `CN1CCN(C(=O)C2CC(c3c(F)cccc3Cl)=NO2)CC1` (stereo not drawn), which “hERG current change (%, negative = inhibition) at 10uM” value is on record?
Answer: -1.24%

Question: For `Cc1cc(C)c(C)c(OCCNCc2ccccc2)c1.O=C(O)C(=O)O`, which “hERG current change (%, negative = inhibition) at 10uM” value is on record?
Answer: -5.47%

Question: For `CC(=O)N1CCC2(CC1)C(C#N)=C(N)OC1=C2C(=O)CC(C)(C)C1`, which “hERG current change (%, negative = inhibition) at 10uM” value is on record?
Answer: 8.09%

Question: `COc1ccc(-c2noc(-c3ccccc3-c3ccccc3)n2)cc1` was tested. Which “hERG current change (%, negative = inhibition) at 10uM” value did it give?
Answer: -9.86%

Question: `COc1ccc(C(=O)Nc2nnc(C(F)(F)F)s2)cc1` was tested. Which “hERG current change (%, negative = inhibition) at 10uM” value did it give?
Answer: 68.7%

Question: For `Cn1c(=O)c2c(nc(CN3CCN(Cc4ccccc4)CC3)n2Cc2ccc(Cl)cc2)n(C)c1=O`, which “hERG current change (%, negative = inhibition) at 10uM” value is on record?
Answer: -68%

Question: How did the “hERG current change (%, negative = inhibition) at 10uM” value turn out when `Cc1occc1C(=O)Nc1ccc2ccccc2c1` was run?
Answer: -1.51%

Question: For `COc1ccc(N2CCN(C(c3ccc4ncccc4c3)c3nnnn3C(C)C)CC2)cc1` (stereo not drawn), which “hERG current change (%, negative = inhibition) at 10uM” value is on record?
Answer: -51.7%

Question: `Cc1onc(-c2ccccc2)c1C(=O)c1c[nH]c(C(=O)NCCCN2CCOCC2)c1` was tested. Which “hERG current change (%, negative = inhibition) at 10uM” value did it give?
Answer: 2.7%

Question: With `Nc1nc(SCC(=O)Nc2ccc(F)cc2)[nH]c(=O)c1NC(=O)c1ccc(F)c(F)c1` as the compound, how does the “hERG current change (%, negative = inhibition) at 10uM” value read?
Answer: 18.3%

Question: `O=C(OCc1cccs1)c1ccccc1NS(=O)(=O)c1ccc2c(c1)OCCO2` was tested. Which “hERG current change (%, negative = inhibition) at 10uM” value did it give?
Answer: 13.6%

Question: For `O=c1cc(-c2cccc(Br)c2)nc(-c2ccccc2F)o1`, which “hERG current change (%, negative = inhibition) at 10uM” value is on record?
Answer: 9.64%

Question: How did the “hERG current change (%, negative = inhibition) at 10uM” value turn out when `COc1ccc(-n2cnc3scc(-c4ccc(OC)c(OC)c4)c3c2=O)cc1` was run?
Answer: 6.63%

Question: Which “hERG current change (%, negative = inhibition) at 10uM” value does the source give for `O=C(NCc1n[nH]c(=S)n1-c1ccc(F)cc1)c1ccco1` here?
Answer: 5.03%

Question: How did the “hERG current change (%, negative = inhibition) at 10uM” value turn out when `COc1ccccc1OCC(=O)Nc1ccccc1C(=O)N1CCCC1` was run?
Answer: 3.22%

Question: Which “hERG current change (%, negative = inhibition) at 10uM” value does the source give for `CNC(=O)CSc1nnc(-c2cnccn2)n1C` here?
Answer: 30.6%

Question: With `O=C(Cn1c(COc2ccccc2)nc2ccccc21)Nc1cccc(Cl)c1` as the compound, how does the “hERG current change (%, negative = inhibition) at 10uM” value read?
Answer: 15.6%

Question: For `Cc1ccc(-c2c(CC(=O)O)c(C)nc3sc4c(c23)CCCC4)cc1.Cl`, which “hERG current change (%, negative = inhibition) at 10uM” value is on record?
Answer: 11.4%

Question: `CCOC(=O)CNC(=O)N1CCCC(C(=O)c2cc(C)c(OC)c(C)c2)C1` (stereo not drawn) was tested. Which “hERG current change (%, negative = inhibition) at 10uM” value did it give?
Answer: 9.16%

Question: For `Cc1ccc(Oc2ccc(NC(=O)CCC(=O)OCC(=O)c3cccs3)cc2)cc1C`, which “hERG current change (%, negative = inhibition) at 10uM” value is on record?
Answer: 5.02%

Question: With `O=S(=O)(c1ccc(Cl)cc1)N1CCC(O)(c2cccnc2)CC1` as the compound, how does the “hERG current change (%, negative = inhibition) at 10uM” value read?
Answer: -17.9%

Question: For `CC(C)C(OC(=O)CN1C(=O)c2ccccc2C1=O)C(=O)NC1CCCC1` (stereo not drawn), which “hERG current change (%, negative = inhibition) at 10uM” value is on record?
Answer: 18.7%

Question: With `COc1ccccc1OCc1ccc(C(=O)NCc2cccnc2)o1` as the compound, how does the “hERG current change (%, negative = inhibition) at 10uM” value read?
Answer: -1.34%

Question: `O=C(CC1CC2CCC1C2)OCC(=O)c1c[nH]c2ccccc12` (stereo not drawn) was tested. Which “hERG current change (%, negative = inhibition) at 10uM” value did it give?
Answer: -1.4%

Question: Which “hERG current change (%, negative = inhibition) at 10uM” value does the source give for `O=C(NCC(c1cccs1)N1CCc2ccccc21)c1ccccc1` (stereo not drawn) here?
Answer: 15.3%

Question: For `Cc1csc2ncc(C(=O)NCc3ccccc3Cl)c(=O)n12`, which “hERG current change (%, negative = inhibition) at 10uM” value is on record?
Answer: -25.4%

Question: How did the “hERG current change (%, negative = inhibition) at 10uM” value turn out when `CC(Sc1nnc(COc2ccc([N+](=O)[O-])cc2)n1-c1ccccc1)C(=O)O` (stereo not drawn) was run?
Answer: -3.35%

Question: Which “hERG current change (%, negative = inhibition) at 10uM” value does the source give for `COc1c(C)cc(C(=O)C2CCCN(C(=O)c3ccc4cc[nH]c4c3)C2)cc1C` (stereo not drawn) here?
Answer: -5.66%

Question: Which “hERG current change (%, negative = inhibition) at 10uM” value does the source give for `COc1ccc(-n2c(=S)[nH]c3cc(C(=O)NCCCN4CCCC4=O)ccc3c2=O)cc1OC` here?
Answer: 21.1%

Question: Which “hERG current change (%, negative = inhibition) at 10uM” value does the source give for `CN(C)/C=C(\C#N)C(=O)N/N=C/c1ccccc1` here?
Answer: -0.643%

Question: For `Cc1oc(-c2ccccc2Cl)nc1CN1CCCCC1c1cccnc1` (stereo not drawn), which “hERG current change (%, negative = inhibition) at 10uM” value is on record?
Answer: -9.92%

Question: How did the “hERG current change (%, negative = inhibition) at 10uM” value turn out when `COc1ccc(OC)c(NC(=O)Cn2cc(C#N)c3ccccc32)c1` was run?
Answer: 0.565%

Question: `CCOC(=O)c1c(N)sc(C(=O)Nc2ccccc2F)c1C` was tested. Which “hERG current change (%, negative = inhibition) at 10uM” value did it give?
Answer: 19.5%

Question: With `COc1ccc(N(CC(O)Cn2c(C)nc3ccccc32)S(=O)(=O)c2ccccc2)cc1` (stereo not drawn) as the compound, how does the “hERG current change (%, negative = inhibition) at 10uM” value read?
Answer: 4.8%

Question: Which “hERG current change (%, negative = inhibition) at 10uM” value does the source give for `Cc1ccc(/C=C/c2nc3ccccc3[nH]2)o1` here?
Answer: 14.5%
